Hit rate of the full screen: of about 310,000 compounds, about 14,000 (4.5%) showed an effect of 50% or more. The effect is printed as a negative number. The list shows a part of the results.
These compounds were tested against human ether-à-go-go-related gene (hERG) potassium channel (human, UniProt Q12809) (assay: primary screen, population patch clamp on CHO cells stably expressing hERG).
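Note: peak tail current of the secondary pulse compared with the same well before compound.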

human ether-à-go-go-related gene (hERG) potassium channel, sequence (Q12809 whole entry, looked up): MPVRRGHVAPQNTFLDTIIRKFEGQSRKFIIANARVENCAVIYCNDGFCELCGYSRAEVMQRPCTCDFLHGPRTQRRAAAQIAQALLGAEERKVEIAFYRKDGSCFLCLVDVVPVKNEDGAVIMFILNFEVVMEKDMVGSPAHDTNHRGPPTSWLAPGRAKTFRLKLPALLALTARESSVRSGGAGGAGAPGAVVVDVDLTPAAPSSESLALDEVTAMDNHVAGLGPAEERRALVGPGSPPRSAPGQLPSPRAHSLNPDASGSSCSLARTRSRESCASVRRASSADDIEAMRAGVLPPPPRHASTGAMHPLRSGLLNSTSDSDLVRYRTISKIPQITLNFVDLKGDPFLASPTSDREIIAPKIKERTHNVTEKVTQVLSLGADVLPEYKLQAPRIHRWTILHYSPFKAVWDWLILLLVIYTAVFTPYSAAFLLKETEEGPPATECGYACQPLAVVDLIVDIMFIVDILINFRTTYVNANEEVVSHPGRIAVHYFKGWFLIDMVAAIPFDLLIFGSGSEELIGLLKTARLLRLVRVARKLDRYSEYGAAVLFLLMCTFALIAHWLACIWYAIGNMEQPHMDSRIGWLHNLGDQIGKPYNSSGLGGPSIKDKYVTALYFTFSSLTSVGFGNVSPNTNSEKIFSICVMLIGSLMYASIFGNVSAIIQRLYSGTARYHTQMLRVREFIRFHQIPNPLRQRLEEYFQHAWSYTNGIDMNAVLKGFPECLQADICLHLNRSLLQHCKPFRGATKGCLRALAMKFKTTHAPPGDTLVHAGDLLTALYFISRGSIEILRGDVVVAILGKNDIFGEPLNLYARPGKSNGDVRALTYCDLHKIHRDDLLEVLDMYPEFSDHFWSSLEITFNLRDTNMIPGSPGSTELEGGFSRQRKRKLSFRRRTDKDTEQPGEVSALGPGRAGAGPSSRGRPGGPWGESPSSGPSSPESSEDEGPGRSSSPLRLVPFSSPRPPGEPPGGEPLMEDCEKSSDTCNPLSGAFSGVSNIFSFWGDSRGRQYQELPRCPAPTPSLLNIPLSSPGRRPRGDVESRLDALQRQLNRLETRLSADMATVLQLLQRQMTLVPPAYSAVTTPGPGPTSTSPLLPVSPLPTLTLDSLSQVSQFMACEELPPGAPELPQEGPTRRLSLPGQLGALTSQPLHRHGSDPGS

SMILES | hERG current change (%, negative = inhibition) at 10uM [%]
CCC(=O)c1ccc(N2CCN(C(=O)COc3ccc(F)cc3)CC2)c(F)c1 | -73.4
O=C(Nc1cccc([N+](=O)[O-])c1)c1cccc(C(=O)Nc2cccc([N+](=O)[O-])c2)c1 | 24.1
COc1ccc(CCNC(=O)C(=O)NCC2OCCN2S(=O)(=O)c2ccc3c(c2)OCCO3)cc1 (stereo not drawn) | -6.31
CC(C)OC(=O)c1cc(NC(=O)C2C3C=CC(O3)C2C(=O)O)cc(C(=O)OC(C)C)c1 (stereo not drawn) | -1.28
O=C(CN1C(=O)NC2(CCCCC2)C1=O)N1CCOCC1 | 1.01
Cc1nc(N2CCOCC2)nc(OC(C)C)c1[N+](=O)[O-] | -1.05
CCn1ncc(Br)c1C(=O)Nc1cc(C)ccc1F | -1.52
Cc1ccc(C)c2sc(NC(=O)c3ccc(N4C(=O)CCC4=O)cc3)nc12 | -2.32
COc1ccc(C(=O)C[n+]2ccc3c(c2)nc(-c2ccccc2)n3C)cc1.[Br-] | -1.44
COc1cccc(-c2cc3c(=O)n(-c4ccccc4)c(=S)[nH]c3s2)c1 | 5.62
COc1ccc(OC)c(NC(=O)C(C)N2c3cccc4cccc(c34)S2(=O)=O)c1 (stereo not drawn) | 18.7
Cc1ccccc1C(=O)c1c[nH]c(C(=O)N2CCN(c3ccccc3F)CC2)c1 | -5.6
CCn1c(O)c(N=NC(=O)CNc2cccc(C)c2)c2ccccc21 | 0.933
COc1cc(NC(=O)c2noc3c2CCCC3)c(OC)cc1Cl | 12.7
COc1cccc(CN2CCN(c3nc4nonc4nc3N3CCCCC3)CC2=O)c1 | -23.6
CCOc1ccc(C(=O)NC(C)C2COc3ccccc3O2)cc1 (stereo not drawn) | -26.2
COCCSc1nc2sc3c(c2c(=O)n1-c1ccccc1)CCN(C)C3 | 5.82
CCCCNC(=O)NS(=O)(=O)c1ccc(C(=O)OC)o1 | 0.98
CCOc1ccccc1NCc1cc(=O)oc2cc(C)c(O)cc12 | 17.9
Cc1ccc(-c2csc(NC(=O)CN3CC(C)OC(C)C3)n2)cc1 (stereo not drawn) | -5.28
CC(C)(C)CC(=O)NC(=S)NCc1ccccc1 | 11.4
O=C(NCC1CCCO1)C1CCCN(S(=O)(=O)c2ccc(Br)cc2)C1 (stereo not drawn) | -12.8
Cc1[nH]c(C)c(S(=O)(=O)N2CCN(c3cccc(C(F)(F)F)c3)CC2)c1C(=O)N1CCCCC1 | -1.72
Cc1nnc(SCC(=O)N2CC(=O)Nc3ccccc32)n1-c1ccccc1 | 21.6
Cc1ccc(OCCN2CCCCCC2)c(C)c1 | -34.6
O=C1CCCN2N=C(SCC(=O)Nc3ccc(OC(F)(F)F)cc3)SC2=N1 | 15.7
Cc1nc2c(-c3ccccc3)c[nH]n2c(=O)c1Cc1ccccc1 | 10.6

SMILES | hERG current change (%, negative = inhibition) at 10uM [%]
CCOc1ccccc1CN1CCN(Cc2c[nH]c3ccccc23)CC1CCO (stereo not drawn) | -6.71
Cc1nnc(SC(C)C(=O)Nc2sc3c(c2C#N)CCCC3)[nH]c1=O (stereo not drawn) | 15.2
CCOC(=O)COc1cccc2c(=O)n(CC(=O)N3CCN(C(=O)OCC)CC3)ccc12 | 7.65
CCCCCn1cc(C(=O)C(=O)N2CCOCC2)c2ccccc21 | -26.3
CC(/C=C/c1ccccc1)=N/NC(=O)CNC(=O)c1ccccc1F | 0.863
CCN(CC(=O)NC1CCS(=O)(=O)C1)S(=O)(=O)c1ccc(Cl)cc1C(F)(F)F (stereo not drawn) | -18.8
CC(C)C[C@@]12C(=O)N(c3cccc(F)c3)C(=O)N1[C@H](c1ccc(Br)cc1)[C@@H]1C(=O)N(C(C)(C)C)C(=O)[C@@H]12 | 3.89
Cc1ccc(C(=O)OCCN2CCN(c3ncc(C(F)(F)F)cc3Cl)CC2)cc1 | -2.06
O=C(NCc1ccccc1)C1COc2ccccc2O1 (stereo not drawn) | -2.05
CN1CCN(c2nc3ccccc3c(=O)n2-c2ccccc2)CC1 | -8.48
CSCCC(NC(=O)COc1ccccc1)C(=O)NCCOc1ccc(C)cc1 (stereo not drawn) | -7.97
CC(=O)c1ccc(C(=O)N2CCCC(CCC(=O)N(C)CCc3ccccn3)C2)s1 (stereo not drawn) | 11.4
O=C(NCC1CCCO1)C1CCN(CC2CCCCC2)CC1 (stereo not drawn) | -2.1
CCN(CC)CCCNC(=O)C1CCN(C(=O)c2cc3sccc3n2Cc2ccc(F)cc2)CC1 | -2.11
COc1ccc(-c2nnc3sc(CN4C(=O)c5ccccc5C4=O)nn23)cc1 | 2.51
COc1ccc(NC(=O)C(c2cc3c(cc2[N+](=O)[O-])OCO3)N2CCN(C=O)CC2)cc1 (stereo not drawn) | -47.7
CC(=O)c1ccc(/C=C/c2nc3ccccc3n2C)o1 | -5.96
Cc1ccc(CN2CCN(Cc3nc4ccccc4nc3C)CC2CCO)cc1 (stereo not drawn) | -69.7
COc1ccc(NS(=O)(=O)c2cc(NC(=O)c3cnccn3)ccc2OC)cc1Br | 15.2
CN(C)/C=C(\C(=O)c1ccc(Cl)cc1)c1nnnn1-c1ccc(Cl)cc1 | -25.7
O=C(N/N=C\c1ccccc1OCc1ccccc1)c1ccco1 | 2.38
COc1ccc(S(=O)(=O)NCC2CCCN(Cc3cn(C)nc3C)C2)cc1 (stereo not drawn) | 8.1
CCc1cccc(NC(=O)C2CCCN(S(=O)(=O)c3cccnc3)C2)c1 (stereo not drawn) | -5.51
C(=N\N1CCOCC1)/c1cn(-c2ccccc2)nc1-c1ccccc1 | -23.7
CC(=O)/C=C\c1cn(-c2ncc(C(F)(F)F)cc2Cl)c2ccccc12 | 9.87
O=C1CCCN1CC(O)CS(=O)(=O)Cc1ccc(Cl)cc1 (stereo not drawn) | 14.9
COc1ccc(NC(=O)CSc2nc3c(c(=O)n2C)SCC3)cc1OC | -18.7

From publication PMC4336329 (PLoS ONE, 2015)
